Data reported in PubChem BioAssay AID1625 (Sanford-Burnham Center for Chemical Genomics, 2009).
This is one part of the list. These are further read-outs of the screen, such as a control signal, another cell line or another target. No call is given for them. Most of these compounds were active or inconclusive in the main read-out, so they are no random draw.

Assay: up-regulation of insulin promoter-GFP reporter – imaging, high-content screening, mouse beta cells (AID 1625);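 further: total cells summed across four imaged fields per well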
Conditions: MIN6 insulin promoter-GFP reporter, measured here: cytotoxicity, nuclei count, at 5 µM

Row | Structure (SMILES) | cell count [cells]
1 | N#C/C(=C\c1ccc(N2CCOCC2)o1)c1ccccc1 | 1080
2 | COCCNC(=S)N/N=C/c1ccc(-c2ccc([N+](=O)[O-])cc2)o1 | 1380
3 | Cc1ccc(C#CC[N+]2(CC#Cc3ccc(C)cc3)CCCCC2)cc1 | 480
4 | CN1/C(=C\C=C2/C(=O)Oc3ccccc3C2=O)C(C)(C)c2ccccc21 | 1330
5 | Cc1ccc(-n2nnnc2Sc2ccc(S(=O)(=O)NCCN(C)C)cc2[N+](=O)[O-])cc1 | 331
6 | CCCNc1nc2c(c(=O)n(C)c(=O)n2C)n1Cc1cccc(C)c1 | 325
7 | Cc1ccc(N=Nc2ccc(O)c3ncccc23)cc1 | 311
8 | CN(C)c1ccc(/C=C/c2ccc3c4ccccc4ccc3[n+]2-c2ccccc2)cc1 | 335
9 | Cc1ccc2c(c1)[nH]c1c(N3CCN(Cc4ccccc4)CC3)ncnc12 | 242
10 | CCn1c(SCc2ccccc2)nnc1-c1ccc(S(=O)(=O)N2CCCCC2)cc1 | 396
11 | Cc1ccc(N=C2NC(=O)/C(=C/c3cn(C)c4ccccc34)S2)cc1C | 1180
12 | CCC(=O)Nc1ccc2c(c1)ncn2-c1ccccc1 | 1430
13 | Cc1ccc(Nc2nc3c([nH]2)c(=O)n(C)c(=O)n3C)cc1 | 1490
14 | N#Cc1nc(N2CCOCC2)nc(N2CCOCC2)n1 | 1150
15 | Cc1cc(C)c(NC(=S)NC(=O)c2c(Cl)c(C)nn2C)c([N+](=O)[O-])c1 | 376
16 | CCN1/C(=C/c2cc[n+](C)cc2)C=Cc2cc(C)ccc21 | 211
17 | CC(=O)c1c(C)[nH]c(C(=O)OCCCCN2C(=O)c3ccccc3C2=O)c1C | 329
18 | C=CCNC(=O)C1CC2Cn3c(nc4cc5ccccc5cc43)C2N1C (configuration not stated) | 748
19 | CCCN1C=CC(=C/C=C(\C#N)C(=O)OCC)C=C1 | 1650
20 | COc1cc(OC)nc(-n2ncc(Br)c(Br)c2=O)n1 | 224
21 | Cc1c(C(C)C)c(=O)n(-c2ccc(S(=O)(=O)NCc3ccccc3)cc2)n1C | 442
22 | COc1cccc(OCCOCCN(C)CCO)c1 | 484

Row | Structure (SMILES) | cell count [cells]
23 | Cc1ccn2c(NC3CCCCC3)c(C)nc2c1 | 1170
24 | COc1cc(CNCc2ccncc2)cc(Br)c1OCc1ccccc1F | 390
25 | Fc1ccccc1/C=N/Nc1nc(-c2ccccn2)nc2ccccc12 | 451
26 | Cc1cnc(NC(=O)CN2CCN(c3ccccn3)CC2)s1 | 1410
27 | COc1cccc(C2CC(C(F)(F)F)n3ncc(C(=O)O)c3N2)c1 (configuration not stated) | 338
28 | CN1CCc2c(sc(NC(=O)c3cc4cc([N+](=O)[O-])ccc4s3)c2C(N)=O)C1 | 214
29 | CCCCCc1ccc(OCCCC[n+]2ccccc2)c(CCCCC)c1 | 401
30 | CC1=C/C(=N\OS(=O)(=O)c2ccccc2)C(C)=CC1=O | 367
31 | COc1ccc(CCNC(=O)c2cnn3cccnc23)cc1OC | 445
32 | CC(NC(=O)c1cc(COc2ccc3ncccc3c2)on1)c1ccc(F)cc1 (configuration not stated) | 470
33 | O=C(CSc1nnc(-c2ccccc2)n1Cc1ccco1)NCc1ccc2c(c1)OCO2 | 428
34 | CCCN1CC=C2C(C#N)=C(N)C(C#N)(C#N)C(c3cc(OC)ccc3OC)C2C1 (configuration not stated) | 1300
35 | COc1cccc(/C=N/Nc2ncnc3scc(-c4ccccc4)c23)c1O | 290
36 | O=C(CNC(=O)OCc1ccccc1)Oc1cc2oc(=O)cc(-c3ccccc3)c2cc1Cl | 456
37 | O=C(Nc1ccc(F)cc1)N(Cc1ccco1)Cc1cc2cc3c(cc2[nH]c1=O)OCO3 | 449
38 | CC1(C)CC(N2CCCCC2)=CC(=[N+]2CCCCC2)C1 | 252
39 | COc1cc(NS(=O)(=O)c2ccc(C)cc2C)cc(OC)c1OC | 225
40 | O=c1ccnc(Nc2ccc3c(c2)OCCO3)[nH]1 | 1340
41 | CCCN(CCC)CCNC(=O)c1cc2c(C)nc3ccccc3c2o1 | 429
42 | CCCCCCCOC(=O)C[N+](C)(C)CCOC1CC2CCC1(C)C2(C)C (configuration not stated) | 344
43 | CN(C)c1ccc(/C=N/NC(=O)CN(c2ccccc2Cl)S(C)(=O)=O)cc1Br | 1470
44 | Cc1cc(C(=O)CSc2nc3ccccc3c(=O)n2C)c(C)n1CC1CCCO1 (configuration not stated) | 333

Row | Structure (SMILES) | cell count [cells]
45 | CCOC(=O)C1=C(c2ccc(OC)cc2)C(=O)c2ccccc2C1=O | 458
46 | C/C(=N\Nc1ncc(Cl)cc1Cl)c1ccccn1 | 335
47 | Cc1sc2ncnc(N3CCN(CCOc4ccc(Cl)cc4)CC3)c2c1C | 355
48 | CN(C)CCCn1c(SCC(=O)Nc2nc(-c3cccc(Br)c3)cs2)nc2ccccc2c1=O | 202
49 | CCN(Cc1ccncc1)S(=O)(=O)c1ccc(C(C)=O)cc1 | 369
50 | O=C1C(N2CCOCC2)=C(n2nnc3ccccc32)C(=O)c2ccccc21 | 386
51 | CC1Sc2n(c3ccccc3[n+]2C)N=C1c1ccccc1 (configuration not stated) | 463
52 | Cc1ccc(S(=O)(=O)c2cccc(S(=O)(=O)N3CCCC3)c2)cc1S(=O)(=O)N1CCCC1 | 566
53 | COc1cc(CC(=O)OCC(=O)c2ccc3c(c2)OCCO3)cc(OC)c1OC | 474
54 | Clc1cccc(CN2COc3c(cc(Cl)c4cccnc34)C2)c1 | 483
55 | COc1ccc(C2C(C(=O)N3CCOCC3)CCC(=O)N2c2ccc(OC)cc2)cc1 (configuration not stated) | 1530
56 | Cc1ccccc1OCCCCc1c(C)n[nH]c1C | 493
57 | Cc1oc(C)c2c(=O)ccc3c(c12)OC(N)=C(C#N)C3c1ccccc1Cl (configuration not stated) | 1480
58 | CC(C)OCCCNc1ncnc2c1[nH]c1ccc(F)cc12 | 328
59 | O=C(c1cccs1)c1no[n+]([O-])c1C(=O)c1cccs1 | 1390
60 | C=CCOc1cccc(C2c3c(oc4ccccc4c3=O)C(=O)N2c2ccccn2)c1 (configuration not stated) | 309
61 | Cc1ccc2[nH]c3c(c2c1)CN(C(=O)CN1CCCc2ccccc21)CC3 | 382
62 | COc1cc2c3nnc(-c4ccc(F)cc4)c-3cn(Cc3ccccc3F)c2cc1OC | 963
63 | N#C/C(=C/c1ccc(N2CCOCC2)o1)c1nc2ccccc2[nH]1 | 1100
64 | COc1ccccc1N/C=C/c1onc(C)c1[N+](=O)[O-] | 1360
65 | COc1ccc(CCn2nnnc2C(C(C)C)N2CCN(c3ncccn3)CC2)cc1OC (configuration not stated) | 455
66 | c1ccc(C[n+]2cccc3c4ccccc4ccc32)cc1 | 186

Row | Structure (SMILES) | cell count [cells]
67 | Cn1c(=O)oc2cc(S(=O)(=O)N3CCC(C(=O)N4CC=C(c5ccccc5)CC4)CC3)ccc21 | 445
68 | CCCN(CCC)C1=CC(=[N+]2CCCC2)CC(C)(C)C1 | 300
69 | COc1ccc(C(O)c2nc3ccccc3n2C)cc1OC (configuration not stated) | 191
70 | COc1ccc(Nc2nc(N3CCCC3)c3ccccc3n2)cc1 | 320
71 | Cc1ccnc(SCC(=O)Nc2sc3c(c2C#N)CCCC3)n1 | 341
72 | O=c1c2ccccc2nc(/C=C/c2ccc([N+](=O)[O-])o2)n1CCCO | 258
73 | Cc1cc(/C=C2\SC(=S)NC2=O)c(C)n1-c1ccc(O)cc1 | 1010
74 | COc1ccccc1OCC(O)Cn1c(=N)n(Cc2ccccc2)c2ccccc21 (configuration not stated) | 489
75 | CCN1CCN(c2cc(C)c3cc(NC(=O)c4ccccc4F)ccc3n2)CC1 | 352
76 | CN(C)c1cc[n+](Cc2ccccc2)cc1 | 442
77 | CCOc1ccc(CNC(=O)CCn2c(=O)oc3ccccc32)cc1 | 1170
78 | O=C1C(=O)c2ccc(-c3ccccc3)cc2-c2ccccc21 | 476
79 | COc1ccc(N=Nc2ccc(O)c3ncccc23)cc1 | 258
80 | CS(=O)(=O)c1nc(-c2ccccc2)cc(C(F)(F)F)n1 | 304
81 | Clc1ccc(-n2cc(-c3ccc(Br)cc3)[n+]3c2CCCCC3)cc1 | 474
82 | COc1ccc2c(C)cc(SCC(=O)N(C)C3CCS(=O)(=O)C3)nc2c1 (configuration not stated) | 1160
83 | Cc1ccc(-c2nn(-c3ccccc3)c3[nH]c(=O)c(CNCc4ccccc4)cc23)cc1 | 423
84 | CC1CC(C)CN(S(=O)(=O)c2ccc(C(=O)NCCCn3ccnc3)cc2)C1 (configuration not stated) | 311
85 | COc1ccc(C(=O)Nc2ccc(S(=O)(=O)N3CCCCC3C)cc2)c(OC)c1OC (configuration not stated) | 477
86 | CC(C)(C)C1C/C(=C/c2ccccn2)C(=O)/C(=C/c2ccccn2)C1 (configuration not stated) | 470
87 | COc1cc([C@@H]2c3cc4c(cc3[C@@H](NC3CCN(Cc5ccccc5)CC3)[C@H]3COC(=O)[C@H]23)OCO4)cc(OC)c1O | 218
88 | CN1CC=C2C(C#N)=C(N)C(C#N)(C#N)[C@H](c3ccoc3)[C@H]2C1 | 640

Row | Structure (SMILES) | cell count [cells]
89 | COc1ccc(-n2cc(-c3ccc(C)cc3)[n+]3c2SCC3)cc1 | 427
90 | CCN1/C(=C\c2ccc3cc(C)ccc3[n+]2CC)Sc2cc(C)c(C)cc21 | 238
91 | CCc1cc2c(CN3CCN(CCO)CC3)cc(=O)oc2cc1O | 959
92 | CC(Sc1ccc(Cl)cc1)C(=O)NCc1cccnc1 (configuration not stated) | 360
93 | CCCN1C(=O)/C(=C/C=C2\N(CC)c3ccccc3C2(C)C)SC1=S | 986
94 | COc1cc(OC)c(-c2c3cc(O)c(=O)cc-3oc3cc(O)c(O)cc23)cc1OC | 1510
95 | CCCN1C(=O)S/C(=C/c2ccc(N3CCOCC3)o2)C1=O | 1010
96 | CCCCn1c2c(c(=N)c3ccccc31)CCC2 | 448
97 | CC(C)Cn1c(N)c(C(=O)COC(=O)C2CCCCC2)c(=O)n(C)c1=O | 485
98 | COc1ccc(/C(O)=C/c2nc3ccc(C(=O)NCCc4cccc(C)c4)cc3[nH]c2=O)cc1OC | 1010
99 | COc1cccc(/C=N/NC(=O)CCn2cnc3ccccc32)c1 | 1120
100 | Cc1cc(SCCOc2ccccc2)nc(N)n1 | 1390
101 | Cc1cc(-c2cccs2)c2c(N)c(C(=O)c3ccc4c(c3)OCO4)sc2n1 | 1380
102 | Cc1cccc(NC(=O)/C=C/c2ccc([N+](=O)[O-])s2)c1 | 545
103 | COC(=O)c1sc2cc([N+](=O)[O-])cc(SCC(C)C)c2c1N | 386
104 | CCOc1ccc(C(=O)C(CCC(CN(C)C)C(=O)c2ccc(OCC)cc2)CN(C)C)cc1 (configuration not stated) | 460
105 | CN1C(=O)CC(N2CCN(Cc3ccc(Cl)cc3)CC2)C1=O (configuration not stated) | 750
106 | CCCCC1(Cc2ccc([N+](=O)[O-])cc2)C(=O)N(c2ccccc2)N(c2ccccc2)C1=O | 433
107 | CCOc1cccc(/C=N/NC(=S)Nc2cc(S(=O)(=O)N3CCOCC3)ccc2N2CCOCC2)c1O | 458
